Measured values: the BET-seq Pho4 binding data (Le et al. 2018)
Some of the results follow. Values were computed here from the reads of four pooled replicates and scatter widely.

What follows are sequences tested against T1, Pho4 (S. cerevisiae) (UniProt P07270) (assay: relative binding free energy (BET-seq); higher = weaker binding). Details: reference: library average.
T1 sequence: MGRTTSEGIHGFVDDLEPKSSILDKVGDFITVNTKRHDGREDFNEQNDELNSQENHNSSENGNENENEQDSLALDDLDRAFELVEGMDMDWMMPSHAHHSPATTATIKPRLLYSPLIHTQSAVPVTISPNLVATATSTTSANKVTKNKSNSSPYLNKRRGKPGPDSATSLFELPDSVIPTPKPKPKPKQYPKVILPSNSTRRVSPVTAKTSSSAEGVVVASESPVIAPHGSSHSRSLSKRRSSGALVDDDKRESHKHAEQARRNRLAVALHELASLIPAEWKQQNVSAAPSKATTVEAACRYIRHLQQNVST

Sequence | relative binding free energy [kcal/mol]
TTTGTCACGTGGTAGG | 0.04
ATTGTCACGTGTTGTA | 0.04
TATGGCACGTGAAGTT | 0.06
TCATTCACGTGGGTGG | 0.22
AATAGCACGTGGGTAG | -0.23
GTAGCCACGTGTGTAT | -0.1
GGGATCACGTGGGTAC | 0.15
TATTGCACGTGGAGGC | 0
CTGTGCACGTGTTTCT | 0
AAGGCCACGTGGATGT | -0.11
GCGAACACGTGGGGGA | -0.08
GTAATCACGTGGAGCG | 0.2
TTAGGCACGTGGCGAG | -0.26
ACGTGCACGTGGTGAG | -0.01
TTAGACACGTGGAGAT | -0.01
TGGGCCACGTGCCGGT | -0.12
TTTGGCACGTGATCGT | 0
TAAATCACGTGGCGAG | 0.23
TGTTTCACGTGTGTGC | 0.35
TTTTTCACGTGCCAGT | 0.12
GGGTTCACGTGGTTAA | 0.27
AAAGTCACGTGGGATG | 0.09
CTTGTCACGTGTAGGT | 0.15

Sequence | relative binding free energy [kcal/mol]
TTGAGCACGTGATTAT | 0.03
TTGTGCACGTGAACGG | 0.18
TTTGACACGTGATGAG | 0.09
TAAGACACGTGTGTTT | 0.15
AAAATCACGTGGGGTA | 0.06
CGGAACACGTGGGGGC | -0.03
GTGCTCACGTGGGTTC | 0.21
TAGGTCACGTGGGTAG | -0.02
CTTGTCACGTGGGTGC | -0.1
TGGTACACGTGTGATT | 0.09
TGGTGCACGTGTTGTG | 0.04
GTTGACACGTGGTAAG | -0.05
TGTTTCACGTGTTGAG | 0.24
TTAAACACGTGAGTGC | 0.16
TATGGCACGTGCATGT | -0.19
AGTATCACGTGTTGAA | 0.11
TGGCCCACGTGGTTGT | -0.17
AAGTACACGTGTGTTA | -0.07
GGTAGCACGTGACTAG | 0.19
AGTGGCACGTGCTGAG | -0.1
ATAATCACGTGATGTA | 0.16
GTGTTCACGTGCTCGG | 0.29
GTATGCACGTGTAAAG | 0.09

Sequence | relative binding free energy [kcal/mol]
ATTTCCACGTGGTATG | -0.04
TATCGCACGTGTTATG | 0.07
GTGTTCACGTGTGCGT | 0.16
ATGTGCACGTGAAGTA | 0.03
ATGTGCACGTGTTTCT | -0.07
GGGGACACGTGGGCTA | -0.05
GGAGACACGTGTAGTA | 0.03
TAGGGCACGTGGGGGC | -0.26
TGCTTCACGTGTTGCG | 0.24
TTCATCACGTGTTTGA | 0.07
ATTATCACGTGTGTAT | 0.21
TCGTACACGTGTTTTG | 0.06
CGTCTCACGTGGTTTG | 0.16
GTATGCACGTGTTGCA | -0.08
AGTATCACGTGAGGAG | 0.21
TTTGGCACGTGAGATC | 0.24
TGTGTCACGTGCGGAT | 0.11
AGGGGCACGTGGATAG | -0.02
TGGAGCACGTGTGCCG | -0.03
TATCTCACGTGGGGGT | 0.06
ATCGGCACGTGTGGGC | -0.07
GGGTCCACGTGTAGTT | 0.04
CTGTTCACGTGAGATA | 0.37

Sequence | relative binding free energy [kcal/mol]
TAATGCACGTGGCTTG | -0.08
AGTGTCACGTGGAAAT | 0.14
TTGCACACGTGTAAGG | 0
AGTTCCACGTGGGATA | 0.07
TGGAACACGTGTGCTG | 0.06
ACGGTCACGTGCAGGT | 0.1
GAGCGCACGTGTGAGG | -0.05
AGTTACACGTGTGGAC | 0.23
AGGGTCACGTGGTGGA | 0.1
TTGTTCACGTGCGTAA | 0.22
GTTCGCACGTGTGGCG | 0
CGTTGCACGTGGTTGT | -0.06
TGGGTCACGTGTTAAT | 0.27
GTTGCCACGTGTTGGA | -0.03
AGTCTCACGTGGTAAT | 0.21
TCGCTCACGTGGTTGT | 0.18
AGTGTCACGTGGCGCG | -0.02
TTTTTCACGTGAAGAC | 0.43
TCTGTCACGTGTTAGT | 0
ACGTTCACGTGGGTAT | 0.11
CTTTGCACGTGACGTG | 0.12
ACATTCACGTGGAGGT | 0.21
GCTGTCACGTGTGCGT | 0.04

Sequence | relative binding free energy [kcal/mol]
CGGCCCACGTGAGGGG | -0.01
TATTTCACGTGTAACA | 0.37
GTAGTCACGTGTCAGT | 0.18
TTTGGCACGTGAAGGC | 0.12
GGGATCACGTGATTGA | 0.26
TATGGCACGTGAAGTG | 0.17
ATTGTCACGTGTCGGG | 0.1
CGGGTCACGTGGAAGG | 0.22
TTGTACACGTGGTGCC | -0.01
CATGGCACGTGTTGTC | -0.04
TTGTTCACGTGAGTTA | 0.31
ATGAACACGTGCTTGT | -0.07
CTATGCACGTGTATGG | -0.09
TGCCGCACGTGGGGTA | -0.25
GGTTGCACGTGTGGGG | 0.09
GTTGTCACGTGGGTGT | 0.07
AGAGGCACGTGGTGAT | -0.1
AGATTCACGTGAATTG | 0.21
GGAGGCACGTGAGGTT | 0.25
TCCGTCACGTGGTAGT | 0.23
TGTATCACGTGTGAGC | 0.1
TTGGACACGTGGAAAG | 0.16
GCGGCCACGTGGAGGT | -0.05
